The list shows a part of the results. Interaction screen of human proteins with wild-type SARS-CoV-2 proteins by split-DHFR complementation in yeast, 1 µg/mL methotrexate. Value = fitness of the pair (three or more lineages) minus that of the viral protein without a human partner, on a scale set by negative (0) and fused positive (1) controls, mean of up to three cultures; higher = more likely to interact. Active = false discovery rate below 0.05 (one-sided t-test) in at least one culture. Nearly all pairs are not hits, and differences among them are mostly noise (correlation between cultures about 0.3); most hits were seen in one culture only. Human sequences are the Swiss-Prot entries looked up by gene name; the clone may be another isoform. NSP2 values were corrected by the authors for a growth advantage. Listed are human proteins with a hit and a random twelfth of the others.
B1: KRT79, Q5XKE5 (protein)
chain: MRSSVSRQTYSTKGGFSSNSASGGSGSQARTSFSSVTVSRSSGSGGGAHCGPGTGGFGSRSLYNLGGHKSISVSVAGGALLGRALGGFGFGSRAFMGQGAGRQTFGPACPPGGIQEVTVNQSLLTPLHVEIDPEIQRVRTQEREQIKTLNNKFASFIDKVRFLEQQNKVLETKWALLQEQGQNLGVTRNNLEPLFEAYLGSMRSTLDRLQSERGRLDSELRNVQDLVEDFKNKYEDEINKHTAAENEFVVLKKDVDAAYMGRMDLHGKVGTLTQEIDFLQQLYEMELSQVQTHVSNTNVVLSMDNNRNLDLDSIIAEVKAQYELIAQRSRAEAEAWYQTKYEELQVTAGKHGDNLRDTKNEIAELTRTIQRLQGEADAAKKQCQQLQTAIAEAEQRGELALKDAQKKLGDLDVALHQAKEDLTRLLRDYQELMNVKLALDVEIATYRKLLESEESRMSGECPSAVSISVTGNSTTVCGGGAASFGGGISLGGSGGATKGGFSTNVGYSTVKGGPVSAGTSILRKTTTVKTSSQRY
B2: ARMCX3, Q9UH62 (protein)
chain: MGYARKVGWVTAGLVIGAGACYCIYRLTRGRKQNKEKMAEGGSGDVDDAGDCSGARYNDWSDDDDDSNESKSIVWYPPWARIGTEAGTRARARARARATRARRAVQKRASPNSDDTVLSPQELQKVLCLVEMSEKPYILEAALIALGNNAAYAFNRDIIRDLGGLPIVAKILNTRDPIVKEKALIVLNNLSVNAENQRRLKVYMNQVCDDTITSRLNSSVQLAGLRLLTNMTVTNEYQHMLANSISDFFRLFSAGNEETKLQVLKLLLNLAENPAMTRELLRAQVPSSLGSLFNKKENKEVILKLLVIFENINDNFKWEENEPTQNQFGEGSLFFFLKEFQVCADKVLGIESHHDFLVKVKVGKFMAKLAEHMFPKSQE
B3: ART3, Q13508 (protein)
chain: MKTGHFEIVTMLLATMILVDIFQVKAEVLDMADNAFDDEYLKCTDRMEIKYVPQLLKEEKASHQQLDTVWENAKAKWAARKTQIFLPMNFKDNHGIALMAYISEAQEQTPFYHLFSEAVKMAGQSREDYIYGFQFKAFHFYLTRALQLLRKPCEASSKTVVYRTSQGTSFTFGGLNQARFGHFTLAYSAKPQAANDQLTVLSIYTCLGVDIENFLDKESERITLIPLNEVFQVSQEGAGNNLILQSINKTCSHYECAFLGGLKTENCIENLEYFQPIYVYNPGEKNQKLEDHSEKNWKLEDHGEKNQKLEDHGVKILEPTQIPGMKIPEPFPLPEDKSQGNINNPTPGPVPVPGPKSHPSASSGKLLLPQFGMVIILISVSAINLFVAL
B4: ATP5L2, Q7Z4Y8 (protein)
chain: MAPFVRNLVEKTPALVNAAVTYLKPRLAAFWYYTTVELVPPTPAEIPRAIQSLKKIVSSAQTGSFKQLTVKEALLNGLVATEVSTWFYVREITGKRGIIG

molecular target: SARS-CoV-2 E; experiment: yeast fitness gain over the viral ORF with no human partner (scaled fitness); higher = more likely to interact
Procedure: (§1)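 Split mouse DHFR complementation in pooled diploid yeast: human ORFeome clones carry one fragment and viral ORFs the other; barcoded lineages compete in 1 µg/mL methotrexate and fitness is read by barcode sequencing in up to three cultures.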

Binder | yeast fitness gain
B1 | inactive: 0.00711
B2 | inactive: 0.0479
B3 | inactive: 0.0753
B4 | inactive: -0.00565

molecular target: SARS-CoV-2 M; experiment: as above
Procedure: as §1

Binder | yeast fitness gain
B1 | inactive: 0.00551
B2 | inactive: -0.0117
B3 | inactive: -0.0329
B4 | inactive: 0.0372

molecular target: SARS-CoV-2 N; experiment: as above
Procedure: as §1

Binder | yeast fitness gain
B1 | inactive: 0.0879
B2 | inactive: 0.00763
B3 | inactive: -0.164
B4 | inactive: 0.000423

molecular target: SARS-CoV-2 NSP1; experiment: as above
Procedure: as §1

Binder | yeast fitness gain
B1 | inactive: -0.00385
B2 | inactive: 0.00206
B3 | inactive: 0.0806
B4 | inactive: -0.0189

molecular target: SARS-CoV-2 NSP10; experiment: as above
Procedure: as §1

Binder | yeast fitness gain
B1 | inactive: 0.00965
B2 | inactive: 0.0101
B3 | inactive: 0.0321
B4 | inactive: 0.0313

molecular target: SARS-CoV-2 NSP12; experiment: as above
Procedure: as §1

Binder | yeast fitness gain
B1 | inactive: 0.0377
B2 | inactive: 0.0219
B3 | inactive: -0.0854
B4 | inactive: -0.0114

molecular target: SARS-CoV-2 NSP13; experiment: as above
Procedure: as §1

Binder | yeast fitness gain
B1 | active: 0.0782
B2 | inactive: 0.0507
B3 | inactive: -0.0119
B4 | inactive: 0.0445

molecular target: SARS-CoV-2 NSP14; experiment: as above
Procedure: as §1

Binder | yeast fitness gain
B1 | inactive: 0.0805
B4 | inactive: -0.165

molecular target: SARS-CoV-2 NSP15; experiment: as above
Procedure: as §1

Binder | yeast fitness gain
B1 | inactive: -0.0218
B2 | inactive: -0.0364
B3 | inactive: -0.2
B4 | inactive: -0.0224

molecular target: SARS-CoV-2 NSP16; experiment: as above
Procedure: as §1

Binder | yeast fitness gain
B1 | inactive: 0.0118
B2 | inactive: 0.00744
B3 | inactive: -0.0928
B4 | inactive: 0.0552

molecular target: SARS-CoV-2 NSP2; experiment: as above
Procedure: as §1

Binder | yeast fitness gain
B1 | inactive: -0.109
B2 | inactive: -0.0592
B4 | inactive: -0.137

molecular target: SARS-CoV-2 NSP4; experiment: as above
Procedure: as §1

Binder | yeast fitness gain
B1 | inactive: 0.11
B2 | inactive: -0.0467
B4 | inactive: -0.0561

molecular target: SARS-CoV-2 NSP5; experiment: as above
Procedure: as §1

Binder | yeast fitness gain
B1 | inactive: -0.0123
B2 | inactive: -0.0216
B3 | inactive: 0.0182
B4 | inactive: -0.0765

molecular target: SARS-CoV-2 NSP6; experiment: as above
Procedure: as §1

Binder | yeast fitness gain
B1 | inactive: 0.0538
B2 | inactive: 0.0265
B3 | inactive: 0.0864
B4 | inactive: -0.0155

molecular target: SARS-CoV-2 NSP7; experiment: as above
Procedure: as §1

Binder | yeast fitness gain
B1 | inactive: 0.0348
B2 | inactive: 0.0399
B3 | inactive: -0.0229
B4 | inactive: 0.0621

molecular target: SARS-CoV-2 NSP8; experiment: as above
Procedure: as §1

Binder | yeast fitness gain
B1 | inactive: 0.0118
B2 | inactive: -0.076
B3 | inactive: -0.149
B4 | inactive: 0.048

molecular target: SARS-CoV-2 NSP9; experiment: as above
Procedure: as §1

Binder | yeast fitness gain
B1 | inactive: 0.0401
B2 | inactive: -0.113
B3 | inactive: 0.0504
B4 | inactive: 0.0321

molecular target: SARS-CoV-2 ORF10; experiment: as above
Procedure: as §1

Binder | yeast fitness gain
B1 | inactive: 0.0289
B2 | inactive: 0.0363
B3 | inactive: -0.0359
B4 | inactive: 0.0294

molecular target: SARS-CoV-2 ORF3A; experiment: as above
Procedure: as §1

Binder | yeast fitness gain
B1 | inactive: 0.0526
B4 | inactive: -0.00488

molecular target: SARS-CoV-2 ORF3B; experiment: as above
Procedure: as §1

Binder | yeast fitness gain
B1 | inactive: 0.0343
B2 | inactive: -0.0202
B3 | inactive: 0.0416
B4 | inactive: 0.0295

molecular target: SARS-CoV-2 ORF6; experiment: as above
Procedure: as §1

Binder | yeast fitness gain
B1 | inactive: 0.0268
B2 | inactive: 0.0451
B3 | inactive: 0.054
B4 | inactive: -0.00853

molecular target: SARS-CoV-2 ORF7A; experiment: as above
Procedure: as §1

Binder | yeast fitness gain
B1 | inactive: -0.00131
B2 | inactive: -0.00918
B3 | inactive: -0.0654
B4 | inactive: 0.00571

molecular target: SARS-CoV-2 ORF7B; experiment: as above
Procedure: as §1

Binder | yeast fitness gain
B1 | inactive: 0.0126
B2 | inactive: 0.0333
B3 | inactive: -0.1
B4 | inactive: 0.0135

molecular target: SARS-CoV-2 ORF8; experiment: as above
Procedure: as §1

Binder | yeast fitness gain
B1 | inactive: 0.065
B2 | inactive: 0.0153
B3 | inactive: 0.0392
B4 | inactive: 0.0221

molecular target: SARS-CoV-2 ORF9B; experiment: as above
Procedure: as §1

Binder | yeast fitness gain
B1 | inactive: 0.0272
B2 | inactive: 0.0528
B3 | inactive: 0.0172
B4 | inactive: -0.0135

molecular target: SARS-CoV-2 ORF9Bwu (the 73-codon ORF); experiment: as above
Procedure: as §1

Binder | yeast fitness gain
B1 | inactive: 0.00191
B2 | inactive: -0.00318
B3 | inactive: 0.012
B4 | inactive: 0.00828

molecular target: SARS-CoV-2 S; experiment: as above
Procedure: as §1

Binder | yeast fitness gain
B1 | inactive: -0.00135
B2 | inactive: 0.0536
B3 | inactive: -0.0243
B4 | inactive: 0.0141
